Measurements taken from publication PMC4336329 (PLoS ONE, 2015).
Among all 310,000 compounds or so, about 14,000 (4.5%) showed an effect of 50% or more. Effects have a minus sign here. The list shows a part of the results.

Biological target: human ether-à-go-go-related gene (hERG) potassium channel (human, UniProt Q12809)
Test: primary screen, population patch clamp on CHO cells stably expressing hERG
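Further: peak tail current of the secondary pulse compared with the same well before compound.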

Sequence of human ether-à-go-go-related gene (hERG) potassium channel (Q12809 whole entry, looked up): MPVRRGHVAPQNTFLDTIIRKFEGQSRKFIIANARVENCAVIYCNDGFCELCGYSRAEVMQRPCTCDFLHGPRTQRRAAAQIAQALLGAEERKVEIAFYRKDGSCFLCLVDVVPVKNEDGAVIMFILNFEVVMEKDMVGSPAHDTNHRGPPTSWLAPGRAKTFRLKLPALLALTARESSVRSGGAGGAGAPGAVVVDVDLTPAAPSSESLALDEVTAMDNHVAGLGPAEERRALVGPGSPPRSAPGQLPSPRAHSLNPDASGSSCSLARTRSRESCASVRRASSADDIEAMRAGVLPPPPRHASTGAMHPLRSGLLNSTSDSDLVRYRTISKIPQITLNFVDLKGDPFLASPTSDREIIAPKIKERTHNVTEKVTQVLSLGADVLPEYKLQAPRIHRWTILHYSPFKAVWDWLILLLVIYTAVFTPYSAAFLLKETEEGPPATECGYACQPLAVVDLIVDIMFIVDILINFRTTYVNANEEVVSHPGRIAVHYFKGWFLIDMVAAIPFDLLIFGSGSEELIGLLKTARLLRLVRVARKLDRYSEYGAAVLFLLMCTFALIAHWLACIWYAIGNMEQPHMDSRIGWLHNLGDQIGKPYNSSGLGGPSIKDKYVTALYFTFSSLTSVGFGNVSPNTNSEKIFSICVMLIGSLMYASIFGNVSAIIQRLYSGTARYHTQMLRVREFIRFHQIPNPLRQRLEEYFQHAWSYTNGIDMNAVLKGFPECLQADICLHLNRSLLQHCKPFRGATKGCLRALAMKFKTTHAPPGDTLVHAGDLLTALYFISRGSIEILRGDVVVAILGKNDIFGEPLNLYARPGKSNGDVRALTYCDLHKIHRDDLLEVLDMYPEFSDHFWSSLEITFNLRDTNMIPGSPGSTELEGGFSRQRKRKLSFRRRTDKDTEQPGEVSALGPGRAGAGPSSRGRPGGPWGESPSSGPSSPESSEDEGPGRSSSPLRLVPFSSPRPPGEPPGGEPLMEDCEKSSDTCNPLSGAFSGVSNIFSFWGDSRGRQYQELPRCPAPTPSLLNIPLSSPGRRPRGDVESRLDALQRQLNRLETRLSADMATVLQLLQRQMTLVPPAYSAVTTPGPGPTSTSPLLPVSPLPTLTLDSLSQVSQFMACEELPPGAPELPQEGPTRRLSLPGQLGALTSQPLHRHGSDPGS

Row | Compound | hERG current change (%, negative = inhibition) at 10uM [%]
1 | COc1ccccc1CNC(=O)C(NC(=O)Nc1ccccc1)C(C)C (stereo not shown) | 13
2 | CCCC(=O)O[C@@H]1C[C@@H](C)N(C(=O)c2ccccc2)c2ccc(C)cc21 | -37.7
3 | NC(=Nc1ccc(Br)cc1)c1ccccc1 | 5.73
4 | CCN(CC(=O)N1CCCC1)S(=O)(=O)c1ccc(Br)cc1 | 13.5
5 | Cn1cnc(S(=O)(=O)N2CCN(c3cccc(C(F)(F)F)c3)CC2)c1 | 7.43
6 | Cc1ccccc1N1C(S)=C(C#N)C(=O)NC1c1cccs1 (stereo not shown) | 21.7
7 | Cc1c(NS(=O)(=O)c2ccc(N(C)C3CCCCC3)c([N+](=O)[O-])c2)c(=O)n(-c2ccccc2)n1C | -22
8 | COCCCNC(=O)NC(=O)c1ccccc1 | 12
9 | COc1ccc(CCN2Cc3c(N)cccc3C2=O)cc1OC | 17.9
10 | Cc1[nH]c2ccccc2c1N=Nc1c(C)n(C)n(-c2ccccc2)c1=O | 11.3
11 | CCc1ccccc1OCc1nc2ccc(S(=O)(=O)N3CCOCC3)cc2[nH]1 | -42.7
12 | O=C1/C(=C/c2cccs2)NC(=S)N1C1CC1 | -7.14
13 | CCOc1ccc2[nH]c(C)c(CN3CCOCC3)c(=O)c2c1 | 16.7
14 | CCOC(=O)C1CCCN(C(=O)C2CCN(c3nnc(-n4cccc4)s3)CC2)C1 (stereo not shown) | -48.6
15 | Cc1cccc(C(=O)NCc2nnc(SCC(=O)N3CCN(c4ccccc4)CC3)n2C)c1 | 7.34
16 | CCN(c1ccc(OC)cc1)S(=O)(=O)c1nnc(NC(=O)COc2ccc(C)cc2)s1 | 14.8
17 | CC(=O)/C(=C\Nc1ccc(OCc2ccccc2)cc1)c1ccccc1 | -3.12
18 | COc1ccccc1OCCNC(=O)c1ccc(Br)cc1 | -6.49
19 | CC1=CC(C)[C@H](/C=N/n2c(=O)[nH]c3c([nH]c4ccc(C)cc43)c2=O)C(C)C1 (stereo partly shown) | 17.4
20 | CCN(CC)CCN1C(=O)C(=O)/C(=C(/O)c2c(C)[nH]c(C(=O)OC)c2C)C1c1cccs1 (stereo not shown) | 3.31
21 | COc1ccc(NC(=O)C2CCCN(c3cnccn3)C2)c(OC)c1 (stereo not shown) | 21.4
22 | COc1cc(OC)c(C(=O)NCCCN2CCOCC2)cc1OC | 13.1

Row | Compound | hERG current change (%, negative = inhibition) at 10uM [%]
23 | COc1ccc(/C=N/NC(=O)c2nc(-c3ccccc3)n(-c3ccccc3)n2)c(O)c1 | 11.6
24 | COc1ccc(N(C(=O)C2CCCCC2)C2C=CS(=O)(=O)C2)c(OC)c1 (stereo not shown) | -2.51
25 | COc1ccc(C(C)(C)C)cc1NC(=O)c1ccc[n+]([O-])c1 | 18.8
26 | Cc1ccc2nc(NC(=O)C3CCN(c4ncnc5sc(C)c(C)c45)CC3)sc2c1 | -24.5
27 | O=C(CCCOc1ccccc1)Nc1ccc(Br)cc1 | 22.3
28 | CCn1c(SCC(=O)Nc2ccc(N(C)C)cc2)nnc1C1CC1 | 15.8
29 | Br.Cn1c(CS/C(N)=N/N=C/c2ccccc2)c(Br)c(=O)n1-c1ccccc1 | -25.5
30 | CCN(CC)S(=O)(=O)c1ccc2oc(SCC(=O)Nc3cc(C)on3)nc2c1 | -7.68
31 | O=C(COC(=O)CC12CC3CC(CC(C3)C1)C2)Nc1ncc(Cl)cc1Cl | -20.1
32 | COc1cc(/C=C(\C#N)C(=O)Nc2ccc3c(c2)OCCO3)ccc1O | 3.28
33 | CCOC(=O)c1c(NC(=S)N2CCN(C)CC2)sc(C)c1-c1ccccc1 | -5.42
34 | Cc1nnc(C)n1/N=C/c1ccc2c(c1)OCCO2 | 5.7
35 | Cc1cc(C(C)(C)C)cc(S(=O)(=O)NCC(=O)O)c1C | 10.3
36 | CCc1cc(=O)oc2c(C)c(OCC(=O)NCc3ccccn3)ccc12 | 10.2
37 | Cc1ccc(Nc2c([N+](=O)[O-])c(=O)oc3ccccc23)cc1 | 7.67
38 | O=C(COC(=O)c1ccccc1NC(=O)c1ccco1)Nc1ccc2c(c1)OCO2 | -3
39 | Cc1ccc(Nc2nc(-c3sc(NC(=O)c4ccco4)nc3C)cs2)cc1 | -3.82
40 | O=C(Nc1ccc2nc3n(c(=O)c2c1)CCCCC3)C(=O)N1CCN(c2ccccc2)CC1 | -0.831
41 | O=C(/C=C/c1ccccc1[N+](=O)[O-])Oc1ccccc1 | 7.19
42 | Nc1nc(NCCc2ccccc2)nc(NCCO)c1[N+](=O)[O-] | -14.9
43 | CC(C)=CCC12Oc3cc(O)ccc3C1(O)Oc1cc3c(c(O)c1C2=O)C=CC(C)(C)O3 (stereo not shown) | 15.2
44 | CCCCCn1c(CCNC(=O)c2cccs2)nc2ccccc21 | -52.5

Row | Compound | hERG current change (%, negative = inhibition) at 10uM [%]
45 | O=C(O)C1C2C=CC(C2)C1C(=O)Nc1ccc(Cl)c(Cl)c1 (stereo not shown) | -0.372
46 | CCOc1ccc(NC(=O)N(Cc2ccc(C)cc2)Cc2ccccn2)cc1 | -36.3
47 | Cc1cccc(N(C)S(=O)(=O)c2cccc3nsnc23)c1 | -3.39
48 | COCCNC(=S)Nc1cc(S(=O)(=O)N2CCOCC2)ccc1N1CCCCC1 | -6.45
49 | Cc1ccc2nc(N3C(=O)C(O)=C(C(=O)c4ccco4)C3c3ccc(C)o3)sc2c1.O=C(O)C(=O)O (stereo not shown) | 1.65
50 | CCCCNC(=O)CN(Cc1ccco1)S(=O)(=O)c1ccc(C(C)=O)cc1 | -45.5
51 | Cc1cccc(NS(=O)(=O)c2ccc3c(c2)NC(=O)CC(=O)N3)c1 | 25.2
52 | Cc1ccc(Cl)cc1N1CCN(C(c2cccnc2)c2nnnn2C2CCCCC2)CC1 (stereo not shown) | -2.86
53 | Cc1ccc(CNc2ccc(N3CCOCC3)c(Cl)c2)cc1 | 4.55
54 | COc1cccc(CCNC(=O)CCCC(=O)c2ccccc2)c1 | -4.6
55 | O=C(N[C@H](Cc1cc(=O)[nH]c2ccccc12)C(=O)O)c1ccc(Cl)cc1 | 10.9
56 | Cc1ccc(O)c(C(=O)c2cc(C#N)c(=O)n(Cc3ccccc3)c2)c1 | -5.43
57 | Oc1cccc2ccc[n+](CC(O)Cn3c4ccccc4c4ccccc43)c12.[Cl-] (stereo not shown) | 5.74
58 | CCCc1cc(=O)oc2cc(C)cc(OCC(=O)NC3CCN(Cc4ccccc4)CC3)c12 | -10.3
59 | CN(Cc1ccccc1O)CC1CCCN(CCc2ccc(Cl)cc2)C1 (stereo not shown) | -76.1
60 | CC(=O)Oc1c(C)cc(Cl)cc1C(=O)Nc1ccc([N+](=O)[O-])cc1Cl | 21.9
61 | CCOC(=O)c1ccc(-n2cncn2)nc1 | -5.08
62 | CCOC(=O)Cn1c2c(c(=N)c3c1CCC3)CCC2.Cl | 8.34
63 | CC1CCCCN1C(=O)CSc1nc(N)nc(N)n1 (stereo not shown) | 22.5
64 | O=C(COc1cccc(Oc2ccccc2)c1)Nc1ncccn1 | -3.9
65 | C/C(=C\c1ccccc1)C(=O)NCc1ccco1 | 20.7
66 | CCOC(=O)CC1(c2ccc(OC)c(OC)c2)C(=O)c2ccccc2C1=O | -1.97

Row | Compound | hERG current change (%, negative = inhibition) at 10uM [%]
67 | CCc1ccc(-c2csc(NC(=O)C3CCCO3)c2C(=O)OC(C)C)cc1 (stereo not shown) | 11.2
68 | CC(=O)N1CC2([N+](=O)[O-])CN(C(C)=O)CC([N+](=O)[O-])(C1)C2(C)C | 26.9
69 | CCN1CCN(Cc2ccc(NC(=O)c3cc(NC(=O)N4CCNC4=O)cc(OC)c3)cc2C(F)(F)F)CC1 | -9.24
70 | Nc1ccc(-n2nc3ccccc3n2)cc1 | 6.34
71 | CS(=O)(=O)c1ccc(NC(=O)c2ccc3c(c2)S(=O)(=O)N=C2CCCCCN23)cc1 | 1.4
72 | CSc1nnc(NC(=O)c2cc(=O)c3cc(C)cc(C)c3o2)s1 | 23.2
73 | Nn1cnc2scc(-c3ccco3)c2c1=O | 18.3
74 | c1ccc2c(CN3CCCCCCC3)c[nH]c2c1 | -22.4
75 | Cc1ccc(S(=O)(=O)NCC(=O)N(CC(=O)NCc2ccco2)Cc2ccc3c(c2)OCO3)cc1 | -16.2
76 | O=S(=O)(c1ccc(NC(=S)NCCC(c2ccccc2)c2ccccc2)cc1)N1CCOCC1 | 10.2
77 | CC1Cc2cccc3c(O)c(C(=O)c4nn[nH]n4)c(=O)n1c23 (stereo not shown) | 15.4
78 | CCOC(=O)N1CCC(NC(=O)CSc2cc(=O)n(C)c3ccccc23)CC1 | -13.7
79 | CC1CCCCN1S(=O)(=O)c1ccc(S(=O)(=O)N(Cc2ccccc2)Cc2ccco2)cc1 (stereo not shown) | -1.48
80 | Cc1cc(Nc2ccc(F)cc2C)n2nc(C)nc2n1 | -2.17
81 | COCCCN1C(=O)C(O)=C(C(C)=O)C1c1ccccn1.Cl (stereo not shown) | 3.25
82 | CC(=O)Nc1ccc([N+](=O)[O-])cn1 | 24.4
83 | Cc1nnc(SCC(=O)Nc2sc3c(c2C(N)=O)CCCC3)[nH]c1=O | 6.78
84 | N#Cc1cc(-c2ccccc2)nnc1Sc1ccc(Cl)cc1 | -3.12
85 | Cc1n[nH]c(=O)nc1NCCN(C)C | 17.4
86 | CN(C)c1ccc(C(=O)N/N=C/c2ccccn2)cc1 | 0.484
87 | Cc1ccc(NC(=O)Cn2ncn3c(cc4ccccc43)c2=O)c(C)c1 | 1.77
88 | CCS(=O)(=O)c1ccc(-c2cccc(NC(=O)COc3ccc(Cl)cc3)c2)nn1 | -0.0211
